# Assay results: the antibiotic and cytotoxicity screens of Wong et al. (2023)
# Some of the results follow.
# Test system: HSkMC (human skeletal muscle cells)
# Test: cytotoxicity call (relative viability < 0.9)
# Details: 10 µM
row,Compound,cytotoxicity call
1,CC#CC(=O)NS(=O)(=O)c1ccccc1,inactive
2,Cc1cc(C(=O)Nc2cccc3c2O[C@@H](CN(C)S(=O)(=O)c2ccc(F)cc2)[C@@H](C)CN([C@@H](C)CO)C3=O)n(C)n1,inactive
3,Cc1ccc(S(=O)(=O)N(C)C[C@@H]2Oc3ccc(NC(=O)C4CC4)cc3CC(=O)N([C@@H](C)CO)C[C@@H]2C)cc1,inactive
4,CO[C@H](CN(C)C(=O)c1ccccc1F)[C@@H](C)CN([C@H](C)CO)S(=O)(=O)c1ccc(Cl)cc1,inactive
5,O=C(CN1CCOCC1)N[C@H]1CC[C@@H](CCNC(=O)Nc2cc(F)ccc2F)O[C@@H]1CO,inactive
6,C[C@@H]1CN([C@@H](C)CO)C(=O)c2cc(NS(=O)(=O)c3cccs3)ccc2O[C@@H](C)CCCCO[C@@H]1CN(C)C(=O)Nc1ccc(F)cc1,inactive
7,NC(=O)c1cccnc1N1CCN(C(=O)[C@@H]2CC(=O)N(C3CC3)C2)CC1,inactive
8,COc1ccc(NC(=O)Nc2ccc3c(c2)C(=O)N([C@H](C)CO)C[C@@H](C)[C@H](CN(C)S(=O)(=O)c2cn(C)cn2)O3)cc1,inactive
9,O=C(NC1Cc2ccccc2C1)[C@H]1[C@H](CO)[C@H]2Cn3c(cccc3=O)[C@H]2N1C(=O)c1cnccn1,inactive
10,O=C(C[C@H]1CC[C@@H]2[C@H](COC[C@H](O)CN2C(=O)Nc2ccc(Cl)c(Cl)c2)O1)NCc1ccc(Cl)c(Cl)c1,inactive
11,C[C@@H]1CCCCO[C@@H](CN(C)C(=O)Nc2ccc(F)cc2)[C@H](C)CN([C@@H](C)CO)C(=O)c2cc(NC(=O)Nc3ccc4c(c3)OCO4)ccc2O1,inactive
12,Cc1ccc(C(=CCN2CCCC2)c2ccccn2)cc1.Cl,inactive
13,C[C@@H]1CN([C@@H](C)CO)C(=O)c2cc(NC(=O)CCC(F)(F)F)ccc2O[C@H]1CN(C)Cc1ccc(Cl)c(Cl)c1,inactive
14,C=CCNC(=O)[C@H]1[C@@H]2C(=O)O[C@@H](c3ccccc3)[C@@H](c3ccccc3)N2[C@@H](c2ccc(O)cc2)[C@]12C(=O)N(C(=O)OCCOC)c1ccc(C#CC3=CCCCC3)cc12,inactive
15,COc1ccc(S(=O)(=O)Nc2cccc3c2O[C@@H](CN(C)CC2CC2)[C@H](C)CN([C@H](C)CO)C3=O)cc1,inactive
16,Cn1cc(CN2CCC3(CC2)CNC(=O)CO3)cn1,inactive
17,C[C@@H]1CN([C@@H](C)CO)C(=O)c2cc(NC(=O)Nc3cccc4ccccc34)ccc2O[C@H]1CN(C)S(=O)(=O)c1ccccc1,inactive
18,C[C@](N)(Cc1ccc(O)c(O)c1)C(=O)O,inactive
19,COc1ccc(S(=O)(=O)Nc2ccc3c(c2)C(=O)N([C@@H](C)CO)C[C@@H](C)[C@H](CN(C)Cc2ccncc2)O3)cc1,inactive
20,C[C@@H]1CN([C@H](C)CO)C(=O)CCCn2cc(nn2)CO[C@@H]1CN(C)C(=O)CCCN(C)C,inactive
21,C[C@@H]1CN([C@H](C)CO)C(=O)c2cc(NC(=O)Nc3cccc4ccccc34)ccc2O[C@@H](C)CCCCO[C@H]1CN(C)S(=O)(=O)c1cccs1,inactive
22,COCCOC(=O)N1C(=O)[C@@]2(c3cc(C#CCNC(N)=O)ccc31)[C@H](C(=O)N1CCCCCCC1)[C@H]1C(=O)O[C@H](c3ccccc3)[C@H](c3ccccc3)N1[C@@H]2c1ccccc1OCCO,inactive
23,C[C@H](CO)N1C[C@H](C)[C@@H](CN(C)S(=O)(=O)c2ccccc2)Oc2ccc(NC(=O)C3CC3)cc2CC1=O,inactive
24,C[C@H](NC(=O)C(C)(C)Oc1ccc(C(F)(F)F)cn1)[C@@H](Cc1ccc(Cl)cc1)c1cccc(C#N)c1,inactive
25,CCC1=NCCO1,inactive
26,CN(C)CCCNC(=O)C[C@H]1CC[C@@H]2[C@H](COC[C@@H](O)CN2S(=O)(=O)c2ccc(F)cc2)O1,inactive
27,Cc1noc(C)c1NC(=O)Nc1ccc2c(c1)C(=O)N([C@@H](C)CO)C[C@@H](C)[C@H](CN(C)C(=O)Nc1ccc(C(F)(F)F)cc1)OCCCC[C@@H](C)O2,inactive
28,Cc1cc(C(=O)Nc2cccc3c2O[C@@H](CN(C)Cc2ccc(Oc4ccccc4)cc2)[C@H](C)CN([C@H](C)CO)C3=O)n(C)n1,inactive
29,O=C(C[C@H]1C=C[C@@H](NC(=O)Cc2ccccn2)[C@@H](CO)O1)NCCCN1CCOCC1,inactive
30,CC(C)CC#Cc1cnc2c(c1)C(=O)N([C@@H](C)CO)C[C@H](C)[C@H](CN(C)C(=O)c1ccc3c(c1)OCO3)O2,inactive
